# Source: PubChem BioAssay AID651820 (National Center for Advancing Translational Sciences (NCATS), 2012)
# About 12,000 (3.5%) of roughly 340,000 compounds were called active. The inconclusive results got no clear call from the source; some entries with a clear call stand among them for comparison. Calls follow the shape of the dose curve; as a rule, active = well fitted inhibition curve with a large enough effect; inconclusive = small, poorly fitted or top-dose-only effect, or another doubt; inactive = no such curve, though single readings can be large or run the other way. No potency is given beside an inconclusive call; the fits are too rough. Some structures have more than one record in an assay (separate samples or runs), and their calls can disagree.
# Test: qHTS Assay for Inhibitors of Hepatitis C Virus (HCV)
# Details: Huh7.5.1 HCVcc-Cre (HCVcc is cell-culture hepatitis C virus) infection, luciferase reporter, 44 h; activity change, negative = inhibition: at 41.8 µM (top of the series) unless noted
# Outline: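 Infectious HCVcc-Cre (~0.5 moi) was added to cells just after compound, with cells seeded 4 h earlier at 1,000 per well. Luciferase activity after 44 h culture reported infection; substrate was incubated 15 min at room temperature before reading.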
# % is scaled to controls: 0 for no effect and ±100 for the full control effect; potency is read from the fitted curve at half-maximal effect; tags tell the direction and shape of the fitted curve.
SMILES,Potency,"activity change, negative = inhibition"
COc1ncccc1C(=O)NC1CCCc2c1cnn2-c1ccc(C)c(C)c1 (stereo not given),"inconclusive [inhibitor, single point]",–
S=C(NNc1ccnc2cc(Cl)ccc12)Nc1ccc(Cl)cc1Cl,active: 5.62 µM,–
COc1cc(C(=O)NCCOc2cc(C)cc(C)c2)c(Br)c(OC)c1OC,"inconclusive [inhibitor, full curve]",–
Cc1ccc(-c2nnc(-c3ccc(NC(=O)Cc4cccs4)cc3)o2)cc1,"inconclusive [inhibitor, single point]",–
CS(=O)(=O)N(CC(=O)N1CCN(Cc2ccccc2)CC1)c1ccccc1F,"inconclusive [inhibitor, single point]",–
OC(c1ccc(Cl)cc1)c1nnc(-c2ccccc2)o1 (stereo not given),"inconclusive [inhibitor, partial curve, poor fit]",–
Cc1ccccc1N1CCN(C2CCCN(C(=O)c3cnsn3)C2)CC1 (stereo not given),inactive,–
CC(C)C(=O)N1CCC(CN=Cc2c(O)n(C3CCCCC3)c(=O)n(C3CCCCC3)c2=O)CC1,"inconclusive [inhibitor, single point]",–
Cc1ccc(-n2nc3c(=O)n(CCCC(=O)NCc4ccccc4C)nc(C)c3c2C)cc1,"inconclusive [inhibitor, single point]",–
O=C(O)C1CC=C(Cl)CC1C(=O)NC1CCCCC1 (stereo not given),inactive,–
CCOC(=O)c1c(NC(=O)COC(=O)c2cccnc2OCC)sc(C(=O)N(CC)CC)c1C,"inconclusive [inhibitor, partial curve]",–
COc1ccc(-n2nnnc2CNC(=O)C(=O)c2c[nH]c3ccccc23)cc1,"inconclusive [inhibitor, single point]",–
CN(C)CCNC(=O)COc1ccc(C23CC4CC(CC(C4)C2)C3)cc1,active: 11.2 µM,–
Cn1cccc1-c1nc2ccc(NC(=O)c3cccs3)cc2[nH]1,"inconclusive [inhibitor, partial curve, poor fit]",–
Cc1ccc2c3c(c(SCC(=O)Nc4nonc4C)nc2c1)CCCC3,"inconclusive [inhibitor, partial curve, poor fit]",–
NNC(=O)CCn1c2ccccc2c2ccccc21,inactive,–
Cc1sc2nc(CSc3ccccc3)nc(N3CCC(C(N)=O)CC3)c2c1C,"inconclusive [inhibitor, single point]",–
COc1ccccc1CN(CC(=O)NCc1ccco1)C(=O)CNS(=O)(=O)c1ccc(C)cc1,"inconclusive [inhibitor, single point]",–
COc1cccc(NC(=O)c2cc(-c3ccccn3)nc3ccccc23)c1,"inconclusive [inhibitor, single point]",–
CN(CC(=O)Nc1ccccc1Br)C(=O)c1ccccc1Cc1ccccc1,"inconclusive [inhibitor, single point]",–
CN(C)C(CNC(=O)CSC(=S)N1CCCC1)c1ccccc1 (stereo not given),"inconclusive [inhibitor, partial curve]",–
Fc1ccc(Cn2nnnc2CN2CCN(C3CCCC3)CC2)cc1,inactive,–
Cc1cc(NC(=O)c2ccco2)c(=O)n(Cc2cccc(C(F)(F)F)c2)c1,"inconclusive [inhibitor, partial curve]",–
Cc1nn2c(nc(N3CCCCC3)c3ccccc32)c1C=O,"inconclusive [inhibitor, full curve]",–

SMILES,Potency,"activity change, negative = inhibition"
CNC(=S)N/N=C/c1c(C)cccc1Cl,inactive,–
O=C(CNc1ccc(C(F)(F)F)cc1)Nc1cccc(S(=O)(=O)N2CCCC2)c1,"inconclusive [inhibitor, partial curve]",–
Cc1cccnc1NC(=O)c1c(O)c2ccccc2n(C)c1=O,inactive,–
CN(C)CC(O)COc1ccc(C(C)(C)c2ccc(OCC(O)CN(C)C)cc2)cc1 (stereo not given),active: 10 µM,–
S=c1[nH]nc(-c2ccc(Cl)cc2)n1-c1ccc2c(c1)OCCO2,inactive,–
O=C(Nc1ccc(S(=O)(=O)N2CCCC2)cc1)C1COc2ccccc2O1 (stereo not given),"inconclusive [inhibitor, single point]",–
O=C(O)c1cc(-c2ccc(Cl)cc2)n(-c2cccc(Cl)c2)n1,inactive,–
CCC1CN(C(=O)NCc2ccc(C)cc2)c2cc(Cl)ccc2O1 (stereo not given),"inconclusive [inhibitor, partial curve]",–
Cc1cc(N2CCOCC2)c2c(N)c(Br)cc(C)c2n1,"inconclusive [inhibitor, partial curve]",–
Cc1ccc(N2CC(C(=O)Nc3cc(Cl)ccc3-n3cncn3)CC2=O)cc1 (stereo not given),inactive,–
O=C(c1ncn(Cc2ccccc2)c1C(=O)N1CCc2ccccc2C1)N1CCc2ccccc2C1,"inconclusive [inhibitor, single point]",–
COc1ccc(NC(=O)/C(=C\c2ccc(OS(=O)(=O)c3ccc(C)cc3)cc2)NC(=O)c2ccccc2)cc1,"inconclusive [inhibitor, single point]",–
COc1ccc(NC(=S)NCc2cccnc2)cc1,inactive,–
O=C(Nc1nccs1)C1CC=CCC1 (stereo not given),inactive,–
COCCN(C(=O)COC(=O)CSc1ccccc1)c1c(N)n(Cc2ccccc2)c(=O)[nH]c1=O,–,inconclusive: -78.8% [inhibitor]
CC(C)=CCc1c(O)cc2oc3c(CC=C(C)C)c(O)c(O)c(CC=C(C)C)c3c(=O)c2c1O,"inconclusive [inhibitor, partial curve]",–
CCCN1C(=O)c2cc(C(=O)Nc3ccc(OC)cc3OC)ccc2C1Nc1ccc(OC)cc1OC (stereo not given),"inconclusive [inhibitor, single point]",–
N#Cc1nc(-c2ccc(Cl)cc2)oc1NCc1ccco1,"inconclusive [inhibitor, single point]",–
Nc1nc2ccccc2n1C(=O)c1ccco1,inactive,–
COCCNC(=S)Nc1ccc(N2CCOCC2)c(S(=O)(=O)Nc2ccccc2OC)c1,"inconclusive [inhibitor, partial curve]",–
Cc1ccc(S(=O)(=O)Nc2cccc3ncccc23)s1,"inconclusive [inhibitor, full curve]",–
S=C(Nc1ccc(Oc2ccccc2)cc1)NC1CCCC1,inactive,–
CC1CCCCN1S(=O)(=O)c1ccc(C(=O)Nc2nnc(-c3ccncc3)o2)cc1 (stereo not given),inactive,–
COc1ccc(-c2nc(C#N)c(NC(C)C)o2)cc1,"inconclusive [inhibitor, partial curve]",–

SMILES,Potency,"activity change, negative = inhibition"
Cc1ccc(C)c(-n2c(C)cc(/C=N/NC(=O)c3c(C)nc4cc(C)ccn34)c2C)c1,"inconclusive [inhibitor, partial curve]",–
COc1ccccc1C=NN=C1c2ccccc2-c2ccccc21,"inconclusive [inhibitor, single point]",–
S=C(NCCCN1CCOCC1)N1CCN(c2ccccc2)CC1,inactive,–
O=C1OCCC1Sc1nnc(-c2ccc(Cl)cc2)n1Cc1ccccc1 (stereo not given),"inconclusive [inhibitor, single point]",–
Nc1c(C(=O)OCC2CCCO2)c2nc3ccccc3nc2n1C1CCCCC1 (stereo not given),"inconclusive [inhibitor, partial curve]",–
CC(=O)Nc1cccc(NC(=O)c2cc([N+](=O)[O-])ccc2N2CCCCC2)c1,"inconclusive [inhibitor, partial curve]",–
CC(C)(C)c1ccccc1NC(=S)NC1CCCCC1,"inconclusive [inhibitor, single point]",–
CCN(c1ccccc1)S(=O)(=O)c1ccc(Oc2ccc(C(C)=O)cc2OC)nc1,active: 12.6 µM,–
CN1CCN(/N=C/c2ccc(-c3ccc([N+](=O)[O-])cc3Cl)o2)CC1,active: 8.91 µM,–
C=CCn1c(SC(CCO)C(=O)NCc2ccco2)nc2sc3c(c2c1=O)CCC3 (stereo not given),"inconclusive [inhibitor, partial curve]",–
CCCCn1c(=O)n(C)c(=O)c2c(C(F)(F)F)cc(-c3ccncc3)nc21,"inconclusive [inhibitor, full curve, poor fit]",–
CCc1cc2c(=O)c(-c3ccc4c(c3)OCCO4)coc2cc1OC(=O)c1ccco1,active: 10 µM,–
O=C1NC[C@@H](c2ccccc2)OC(=O)[C@H](Cc2ccc(F)cc2)C/C=C\C[C@H]1CC(=O)N(CCO)Cc1ccccc1,"inconclusive [inhibitor, partial curve]",–
COc1cc(/C=N/NC(=O)c2cccc(S(=O)(=O)N3CCCCC3)c2)cc(Br)c1O,"inconclusive [inhibitor, single point]",–
COC(=O)CN1C(=S)N(Cc2ccccc2)C(=O)C1CC(=O)Nc1ccc(Br)cc1 (stereo not given),inactive,–
COc1ccccc1OCCCn1cc(C#N)c2ccccc21,"inconclusive [inhibitor, single point]",–
COc1ccc(C(=O)C[n+]2ccccc2/C=N/O)cc1,inactive,–
C=CCn1c(CCC(=O)Nc2ccc(C)c(Cl)c2)nnc1SCC(=O)Nc1ccccc1C,"inconclusive [inhibitor, partial curve]",–
N#Cc1ccccc1NC(=O)CNc1ccccc1N1CCCCC1,"inconclusive [inhibitor, partial curve]",–
O=C(CNc1ccc(Br)cc1)NNC1=NCCC1,"inconclusive [inhibitor, single point]",–
CCc1cc2cc(C)cc(C)c2nc1Cl,"inconclusive [inhibitor, single point]",–
O=C(NCCCN1CCOCC1)c1ccc(CSc2ccc(Cl)cc2)cc1,"inconclusive [inhibitor, single point]",–
